The whole screen tested about 360,000 compounds, of which about 6,000 (1.7%) were called active. The inconclusive results got no clear call from the source; some entries with a clear call stand among them for comparison. Calls follow the shape of the dose curve; as a rule, active = well fitted cell-killing curve with a large enough effect; inconclusive = small, poorly fitted or top-dose-only effect, or effect the other way; inactive = flat fitted curve, though single readings scatter. No potency is given beside an inconclusive call; the fits are too rough.
Experiment: qHTS for induction of synthetic lethality in tumor cells producing 2HG: qHTS for the HT-1080-NT fibrosarcoma cell line;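 also: NT is the 2HG producing partner of a matched IDH1 knockdown line; nearly all actives have a fitted effect of over 55% in size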;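 as to activity, negative = less viability: 0% = DMSO-treated cells and -100% = media-only wells without cells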
Conditions: HT-1080-NT fibrosarcoma viability, CellTiter-Glo ATP luminescence, 48 h; activity, negative = less viability: at 46.1 µM (top of the series) unless noted
Method in brief: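 HT-1080-NT; 750 cells/well; 5% FBS RPMI; 48 h compound, 37 degrees C; CellTiter-Glo luminescence; curve fitting and curve-class assignment.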
Potency is read from the fitted curve at half-maximal effect; tags tell the direction and shape of the fitted curve.

Structure (SMILES)	Potency	activity, negative = less viability
Cc1ccc(N(C(=O)CCl)C(C(=O)NC2CCCCC2)c2cccnc2)cc1C (configuration not stated)	active: 1.64 µM	
CC(C)(C)c1ccc(C(=O)N2CCC(=O)N([C@H](COCc3ccccc3)Cc3ccccc3)CC2)cc1	inconclusive [cytotoxic, single point]	
O=C(NCc1ccco1)C(c1cccs1)N(Cc1ccccc1)C(=O)Cn1nnc2ccccc21 (configuration not stated)		inactive: 7.92%
COc1ccccc1NC(=O)c1cc(C)oc1C		inconclusive: 31.4%
CCCCS(=O)(=O)N1CCN(S(=O)(=O)c2ccc(Cl)s2)CC1		inactive: 21.4%
OCCNc1c2ccccc2nc2ccccc12	active: 23.1 µM	
Cc1cccc(C)c1NC(=O)C1(C)CCC(=O)N1c1cc(C(C)(C)C)nn1C (configuration not stated)	inconclusive [rising, partial curve]	
Fc1ccc(Cn2c(SCc3ccc(F)c(F)c3)nnc2C(F)(F)F)cc1	inconclusive [cytotoxic, single point]	
CCN(CC)c1ccc(/C=N/NC(=O)c2ccc3nc[nH]c3c2)c(O)c1	inconclusive [cytotoxic, full curve]	
O=C(Cc1ccc([N+](=O)[O-])cc1)N/N=C/c1ccc([N+](=O)[O-])o1	inconclusive [cytotoxic, single point]	
O=C(Nc1nc(-c2ccccn2)cs1)c1ccc(Cl)s1	inconclusive [cytotoxic, partial curve, poor fit]	
Cc1cc(C(F)(F)F)nc(CCNC(=O)C2CCC(=O)N(Cc3cccc(F)c3)C2)n1 (configuration not stated)		inactive: 11.4%
Fc1ccc(F)c(C2=NNC(=Nc3ccccc3F)SC2)c1	inconclusive [cytotoxic, single point]	
NC(=O)CC(NC(=O)c1ccccc1)c1ccc(NC2CCCCCCC2)c([N+](=O)[O-])c1 (configuration not stated)	inconclusive [cytotoxic, single point]	
O=C(Nc1cccc(S(=O)(=O)N2CCCC2)c1)[C@@H]1O[C@H](CO)[C@@H](O)[C@H]1O		inactive: 21.1%
CSc1ccccc1C(=O)Nc1cccc([N+](=O)[O-])c1C	inconclusive [rising, partial curve]	
O=C(Nc1nnc(COc2ccccc2)s1)C1CCN(S(=O)(=O)c2ccc(Cl)cc2)CC1	inconclusive [cytotoxic, single point]	
CC(C)(C)c1cc(=O)[nH]c(SCc2ccccc2)n1	inconclusive [cytotoxic, single point]	
O=C1/C(=C/c2ccccc2)CN(C(=O)CCN2CCOCC2)C/C1=C\c1ccccc1	inconclusive [cytotoxic, single point]	
COc1ccc(OC)c(NC(=O)C2(C)CCN2Cc2ccccc2OC(F)F)c1 (configuration not stated)	inconclusive [cytotoxic, partial curve]	
COc1ccc(C2=C(CN(C)C)C(c3ccccc3)c3ccccc3O2)cc1 (configuration not stated)	active: 20.6 µM	
COc1cccc(N2CCN(C(=O)c3ccc(CS(=O)c4ccc(Cl)cc4)o3)CC2)c1 (configuration not stated)	inconclusive [cytotoxic, full curve]	
COc1cccc(-c2sc3ccc(OC)cc3c2-c2ccc(C(N)=O)cc2)c1	inconclusive [cytotoxic, single point]	
Cc1c(Cc2ccccc2)c(=O)n2c([nH]c3ccccc32)c1C#N	active: 20.6 µM	

Structure (SMILES)	Potency	activity, negative = less viability
OC(c1ccc2ccccc2c1)c1ncc(-c2cccc3ccccc23)[nH]1 (configuration not stated)	active: 18.4 µM	
COC(=O)c1cnc(Oc2c(Cl)cc(N)cc2Cl)cc1C(F)(F)F	inconclusive [cytotoxic, single point]	
CCOc1ccccc1C1CC(=O)Nc2cc(C)c(C)cc21 (configuration not stated)	inconclusive [cytotoxic, partial curve]	
O=C1[C@@H](Oc2ccccc2)[C@@H](c2cnc3ccccc3c2)N1c1ccccc1	inconclusive [cytotoxic, single point]	
O=C(CN1CCOCC1)NNC(=O)c1ccc([N+](=O)[O-])cc1		inactive: 4.25%
CCc1cc2ccc(C)cc2nc1SCC(=O)NC1CCCC1		inactive: 0%
CCO[C@H]1OC(C(=O)N2CCN(Cc3ccccc3)CC2)=C[C@@H](c2ccc(C(F)(F)F)cc2)[C@@H]1CCCO		inactive: -3.19%
Cc1ccsc1C(=O)Nc1ccc(F)c([N+](=O)[O-])c1		inactive: -0.461%
Cc1ccc(NC(=O)/C=C/c2cccs2)c([N+](=O)[O-])c1	inconclusive [cytotoxic, single point]	
Cc1ccc(CCN2CC(C(=O)NC3CCC(C)CC3)CC2=O)cc1 (configuration not stated)		inactive: -0.93%
CCOC(=O)C1CCCN(C(=O)Cn2cccc2C(=O)c2ccccc2)C1 (configuration not stated)		inactive: 3.17%
CC1(C(=O)Nc2ccc(F)c(Cl)c2)Cc2c(-c3cccc(C(F)(F)F)c3)ccnc2O1 (configuration not stated)	inconclusive [cytotoxic, single point]	
O=C(COC(=O)Cc1ccc(S(=O)(=O)N2CCOCC2)s1)Nc1ccccc1		inactive: 3.36%
Cn1cc([N+](=O)[O-])c(C(=O)Nc2ccn(Cc3c(F)c(F)cc(F)c3F)n2)n1	active: 7.08 µM	
CCNCCC(=O)N1c2ccccc2Sc2ccc(C(F)(F)F)cc21	inconclusive [cytotoxic, partial curve]	
CCOc1ccc(CSC2=NCCN2)cc1Cl	inconclusive [cytotoxic, single point]	
CCCC(=O)Nc1ccc(C(=O)/C=C/c2ccc(SC)cc2)cc1	inconclusive [cytotoxic, single point]	
O=C(c1ccncc1)N1CCN(S(=O)(=O)c2cc(C(F)(F)F)cc(C(F)(F)F)c2)CC1	inconclusive [cytotoxic, single point]	
Cc1ccc2cc(C(c3nnnn3C3CCCC3)N(Cc3cccnc3)Cc3ccco3)c(=O)[nH]c2c1 (configuration not stated)	inconclusive [cytotoxic, single point]	
CCOC(=O)c1sc2nc(CC(=O)OC)nc(N3CCN(c4ccccn4)CC3)c2c1C	inconclusive [cytotoxic, partial curve, poor fit]	
CC(C)(C)[C@]1(O)CCN2C[C@H]3c4ccccc4CCc4cccc(c43)[C@@H]2C1	inconclusive [cytotoxic, single point]	
COc1ccc(-c2nnc(-c3ccc(F)cc3)o2)cc1	inconclusive [rising, partial curve]	
CN1C(=O)C(C)(C)c2cc(S(=O)(=O)N3CCC(C(=O)NCc4ccccc4Cl)CC3)ccc21		inactive: -4.41%
Cc1cc(N2CCN(c3ccc(C(F)(F)F)cc3[N+](=O)[O-])CC2)c2ccccc2n1	inconclusive [cytotoxic, single point]	

Structure (SMILES)	Potency	activity, negative = less viability
CC1(c2ccc(OC(F)F)cc2)NC(=O)N(CC(=O)Nc2ccc3c(c2)OCO3)C1=O (configuration not stated)	inconclusive [cytotoxic, single point]	
Cn1cc(CN2CCC(CO)CC2)c(-c2ccc(Oc3ccccc3)cc2)n1		inactive: -28.4%
C=CCc1ccccc1OCC(O)CN1CCN(c2ccccc2F)CC1 (configuration not stated)	inconclusive [cytotoxic, single point]	
COc1ccc(S(=O)(=O)NN(C)c2nc(C(F)(F)F)nc3ccccc23)cc1	active: 20.6 µM	
O=C(Nc1ccccc1)N(Cc1ccccc1)C1=NCCS1		inactive: 13.7%
Cc1ccc(NCC(=O)Nc2cccc(F)c2)cc1S(=O)(=O)N1CCCCCC1	inconclusive [cytotoxic, partial curve]	
O=C1N(CCCCN2C(=O)C3(OCCO3)c3ccccc32)c2ccccc2C12OCCO2		inactive: -9.73%
CC1(C(=O)NCc2cccs2)Cc2c(-c3ccc(C(N)=O)cc3)ccnc2O1 (configuration not stated)	inconclusive [cytotoxic, partial curve]	
CCCCc1c(-c2cccc(Br)c2)ncn1CCc1ccccc1OC	active: 14.6 µM	
O=C(O)C1C(c2ccccc2)C(C(=O)Oc2ccccc2)C1c1ccccc1 (configuration not stated)		inactive: 8.88%
CCCCCCCCCn1ccc(=N)cc1	inconclusive [cytotoxic, partial curve, poor fit]	
O=C(c1ccc(Br)cc1)N1CCN(S(=O)(=O)c2ccccc2)CC1		inactive: 7.39%
CC(C)NC(=O)CCN1C(=O)c2ccccc2Sc2ncccc21		inactive: 6.85%
CCc1nc2ccc(C(=O)N(CC)CCN(C)C)cn2c1N(C)C(=O)c1cccc(OC)c1	inconclusive [rising, single point]	
COc1cnc(-c2ccccn2)[nH]c1=O		inactive: 3.22%
O=S1(=O)C=C(Sc2nnc(-c3ccccc3)o2)c2ccccc21	active: 2.82 µM	
Cc1ccc(OCC(=O)N(Cc2ccc(N(C)C)cc2)C2CCS(=O)(=O)C2)cc1C (configuration not stated)		inactive: 0%
CNc1nc(NCc2ccc(C)cc2C)c2sccc2n1	inconclusive [cytotoxic, single point]	
CCc1ccc2c(c1)NC(=O)C2(C)Cc1ccccc1OC (configuration not stated)		inconclusive: -52.3%
C(=C\c1ccccc1)/CN1CCN(C(c2cccc3ccccc23)c2nnnn2Cc2ccccc2)CC1 (configuration not stated)	inconclusive [cytotoxic, single point]	
CCOC(=O)C1CCN(c2ncnc3c2oc2ccc(Cl)cc23)CC1	inconclusive [cytotoxic, partial curve]	
O=C(c1ccc([N+](=O)[O-])cc1)N1CCN(c2ncc(Br)cn2)CC1		inactive: 1.68%
Cc1ccc(NCCC(=O)c2cccs2)cc1Cl		inactive: 10.2%
COc1cc2c(cc1OC)C(C)N(C(=O)c1sccc1C)CC2 (configuration not stated)		inactive: 1.63%

Source: PubChem BioAssay AID686970 (National Center for Advancing Translational Sciences (NCATS), 2013)
